Data on 89 molecules can be found in publication PMC4336329 (PLoS ONE, 2015).

Each structure is given as a SMILES string. About 2,200 (0.71%) of roughly 310,000 compounds showed an effect of 50% or more. The effect is printed as a negative number. Some of the results follow.

In the assay the target is human ether-à-go-go-related gene (hERG) potassium channel (human, UniProt Q12809). In words: primary screen, population patch clamp on CHO cells stably expressing hERG.
Sequence of human ether-à-go-go-related gene (hERG) potassium channel (Q12809 whole entry, looked up): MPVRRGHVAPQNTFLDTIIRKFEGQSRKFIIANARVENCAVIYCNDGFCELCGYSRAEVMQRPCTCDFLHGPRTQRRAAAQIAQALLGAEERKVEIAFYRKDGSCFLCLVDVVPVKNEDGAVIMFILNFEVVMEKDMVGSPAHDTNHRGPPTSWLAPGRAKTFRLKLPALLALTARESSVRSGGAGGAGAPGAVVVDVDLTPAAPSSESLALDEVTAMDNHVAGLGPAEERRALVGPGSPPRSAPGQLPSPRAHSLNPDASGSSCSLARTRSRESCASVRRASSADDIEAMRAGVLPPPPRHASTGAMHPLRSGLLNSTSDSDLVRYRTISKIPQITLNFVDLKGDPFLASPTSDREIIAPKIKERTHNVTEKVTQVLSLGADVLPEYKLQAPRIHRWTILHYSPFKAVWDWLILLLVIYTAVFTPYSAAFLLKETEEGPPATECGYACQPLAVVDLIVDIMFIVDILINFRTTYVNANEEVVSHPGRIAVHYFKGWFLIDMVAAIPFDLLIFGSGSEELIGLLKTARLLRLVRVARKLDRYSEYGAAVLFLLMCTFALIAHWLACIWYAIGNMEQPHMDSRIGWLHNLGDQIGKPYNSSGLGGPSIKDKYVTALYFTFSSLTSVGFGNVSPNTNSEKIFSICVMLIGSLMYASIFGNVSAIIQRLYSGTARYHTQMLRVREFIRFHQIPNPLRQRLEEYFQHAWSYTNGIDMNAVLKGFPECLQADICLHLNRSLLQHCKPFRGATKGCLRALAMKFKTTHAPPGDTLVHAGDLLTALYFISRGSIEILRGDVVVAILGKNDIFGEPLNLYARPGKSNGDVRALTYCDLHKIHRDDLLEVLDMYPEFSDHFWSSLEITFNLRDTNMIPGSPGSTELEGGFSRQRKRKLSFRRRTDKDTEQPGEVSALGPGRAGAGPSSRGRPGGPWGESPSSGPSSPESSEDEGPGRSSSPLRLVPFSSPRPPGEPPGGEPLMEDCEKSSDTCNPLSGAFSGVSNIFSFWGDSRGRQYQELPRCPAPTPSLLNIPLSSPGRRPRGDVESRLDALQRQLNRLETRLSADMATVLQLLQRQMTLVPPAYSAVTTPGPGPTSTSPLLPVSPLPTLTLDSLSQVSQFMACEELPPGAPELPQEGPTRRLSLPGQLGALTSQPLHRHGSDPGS
Consider `Cc1cccc(NC(=O)CCNS(=O)(=O)c2cccc3nsnc23)c1C`, for which the “hERG current change (%, negative = inhibition) at 1uM” value was found to be 15.4%. For `COCCNC(=O)C1CC(c2ccccc2[N+](=O)[O-])=NO1` (centres unmarked) the value was 18.3%; for `O=C(c1ccc(S(=O)(=O)N2CCCCC2)cc1)N1CCN(c2ccccc2)CC1`, -2.7%.

Turning to `O=C(Cn1nnc(-c2ccc(OCc3ccccc3F)cc2)n1)N1CCOCC1`, the “hERG current change (%, negative = inhibition) at 1uM” value was -0.681%. For `CC(C)(C)NC(=O)CN(C(=O)CSc1nnc(COc2ccccc2)o1)c1cccc(F)c1` the value was 0.821%; for `CNc1nc(OCC(F)(F)F)nc(N2CCOCC2)n1`, 12.8%; for `CCCc1cc(C(=O)NCCc2ccc(OC)c(OC)c2)no1`, -2.06%. With `O=C(COc1ncnc2cc(Cl)ccc12)c1ccccc1` the figure was 17.1%; with `CCOC(=O)c1sc(NC(=O)c2ccncc2)c(C#N)c1C`, 7.56%; with `Cn1c(N)c(C(C[N+](=O)[O-])c2c(F)cccc2Cl)c(=O)n(C)c1=O` (centres unmarked), 9.57%. With `O=C(CSc1ncnc2sc3c(c12)CCCC3)N1CCC(c2noc3ccc(F)cc23)CC1` the figure was -5.7%. `Cc1cc(C)cc(N(CC(=O)NC2CCCC2)C(=O)CNC(=O)c2ccco2)c1`: the “hERG current change (%, negative = inhibition) at 1uM” value amounted to 11.1%. Take `CCN(CC)CCCNC(=O)COc1ccc2oc3c(c2c1)CCCC3.Cl`: the “hERG current change (%, negative = inhibition) at 1uM” value amounted to 6.07%. With `COC(=O)c1ccc(C(=O)OC)c(NC(=S)N2CCN(c3ccccc3)CC2)c1` the figure was 5.19%; with `Cc1cc(C)cc(N(CC(=O)NCc2ccco2)C(=O)c2snc(C(N)=O)c2N)c1`, 8.65%; with `CC[C@H](C)[C@H](NC(=O)CNC(=O)COc1cc2c(c3oc(=O)cc(C)c13)CCC(C)(C)O2)C(=O)O`, 14.2%.

For the molecule `Cc1nn(C(=O)c2ccco2)c(C)c1Sc1ccc(Cl)cc1`, the “hERG current change (%, negative = inhibition) at 1uM” value was 23.8%. With `COCc1ccc(CN2CCC(n3nccc3NC(=O)CCOc3ccccc3)CC2)o1` the figure was 14.1%; with `CCOc1cc(CN2CCC(n3nccc3NC(=O)C3CC3)CC2)ccc1O`, 5.94%; with `Cc1cc(=O)[nH]c2nnc(-c3ccc(Cl)cc3)n12`, 11.3%.

Regarding `COc1ccc(N=C2S/C(=C\c3ccco3)C(=O)N2CC(C)C)cc1`, the “hERG current change (%, negative = inhibition) at 1uM” value worked out at 11.3%. With `COc1ccc(OCC(=O)NCc2ccc(Cl)cc2)cc1` the figure was 8.82%; with `C=CCOC(=O)C1=C[C@H](C2CC2)[C@@H](CCCO)[C@H](OCC)O1`, 19.2%. With `CCC(CC)C(=O)Nc1cc(=O)n(C)c(=O)n1C` the figure was 7.2%; with `CN(C)Cc1c(C(=O)N/N=C/c2cccc(OCc3ccccc3)c2)nnn1-c1nonc1N`, 12.3%.

Regarding `CN=c1c([N+](=O)[O-])nn(-c2ccc3c(c2)OCCO3)n1O`, the “hERG current change (%, negative = inhibition) at 1uM” value stood at 11.9%.

As for `Cc1oc2c(c(C)cc3oc(=O)c(CC(=O)N[C@@H](CC(C)C)C(=O)O)c(C)c32)c1C`, the “hERG current change (%, negative = inhibition) at 1uM” value is 11.7%.

Regarding `CC(C)CC(COCc1cccc(Cl)c1)N1CCN(C(=O)c2cccc(C(F)(F)F)c2)CCC1=O` (centres unmarked), the “hERG current change (%, negative = inhibition) at 1uM” value was -7.64%. For `CCOC(=O)N1CCN(C(=O)Cn2nc(-c3ccc(Cl)cc3)ccc2=O)CC1` the value was -5.5%; for `O=C(O)CCSc1nnc(-c2ccccc2)n1-c1ccccc1`, 6.47%. With `Cc1ccc(NC(=O)Nc2ccccc2)c(Br)c1` the figure was 13.7%; with `COc1ccccc1C(=O)NC1CC2CCC(C1)N2Cc1ccccc1` (centres unmarked), -2.2%. For `NC(=O)CC[C@H](NC(=O)[C@H](Cc1ccccc1)n1c(=O)[nH]c2ccccc2c1=O)C(=O)N1CCC[C@H]1C(=O)O`, the “hERG current change (%, negative = inhibition) at 1uM” value was -4.77%.

For `CN(Cc1ccccc1)C(=O)COC(=O)COc1ccc(C#N)cc1`, the “hERG current change (%, negative = inhibition) at 1uM” value came out at 0.86%.

`CCCOC(=O)c1ccc(NC(=O)C(=O)NCCN(CC)CC)cc1`: the “hERG current change (%, negative = inhibition) at 1uM” value is given as -13.3%.

With `CCCCN1C(=O)N(C)C2C1N(C)C(=O)N2CCCC` (centres unmarked), the “hERG current change (%, negative = inhibition) at 1uM” value came out at 4.27%. For `CCS(=O)(=O)N1CCC(C(=O)NC2CCCCCCC2)CC1` the value was 2.8%; for `Cc1ccc(N/C=C/C(=O)c2cccs2)cc1C`, 11.5%. With `Cc1[nH]c2ccccc2c1C1=CN2CCS(=O)(=O)N=C2S1` the figure was 10.1%; with `Cc1cc(C)c2nc(N(CCCN(C)C)C(=O)c3ccc4c(c3)OCCO4)sc2c1.Cl`, 1.3%. As for `Cc1ccc(C2(C(F)(F)F)NC(=O)N3C(=C2C#N)Nc2ccccc23)cc1` (centres unmarked), the “hERG current change (%, negative = inhibition) at 1uM” value is 11.5%. With `COC(=O)CN1C(=O)C(O)(CC(=O)c2ccc(C)cc2)c2ccccc21` (centres unmarked) the figure was 13.1%; with `Cc1ccc(Cn2c(SCC(C)C)nc3c2c(=O)n(C)c(=O)n3C)cc1`, 6.92%; with `O=C(O)c1c(NC(=O)N2CCCC2)sc2c1CCCC2`, 19.2%. For `O=C(Cn1ccccc1=O)NCc1ccc(F)cc1` the value was 11.3%; for `CC(=O)c1sc(NC(=O)c2ccc(F)c(S(=O)(=O)N3CCOCC3)c2)nc1C`, 14.1%; for `CCC(C)c1ccc(O)c(NC(=O)c2ncn[nH]2)c1` (centres unmarked), 17.9%. For `CC(=O)c1ccc(S(=O)(=O)NCCC(=O)OCC(=O)N(Cc2ccccc2)C(C)(C)C)cc1` the value was 4.73%; for `CCNc1ccc(N=Nc2c(C)n(C)n(-c3ccccc3)c2=O)cc1`, 7.24%; for `COc1ccc(CCNc2cc(C)nc3c(-c4ccccc4OC)cnn23)cc1OC`, 13.1%. Consider `Cc1ccc(NC(=O)CSc2nnc(CNC(=O)c3ccco3)n2C)c(C)c1`, for which the “hERG current change (%, negative = inhibition) at 1uM” value is reported as -2.53%. With `CCCCn1c(=O)c2ccccc2c2ccccc2c1=O` the figure was 8.74%; with `O=c1[nH]c(Cc2ccccc2)nc2c1oc1ccccc12`, 8.74%; with `COCCNC(=O)c1ccc2c(=O)n(Cc3ccco3)c(SCC(=O)Nc3ccc(OC)cc3OC)nc2c1`, 10.8%. For `O=C(O)C1CCN(S(=O)(=O)c2ccc(N3CCC(O)CC3)c([N+](=O)[O-])c2)CC1` the value was 16.8%; for `O=C(NCCN1CCOCC1)c1cc(-c2ccccc2)on1`, 11%. For `N#CC1=C(N)Oc2c(c(=O)oc3ccccc23)C1c1cccnc1` (centres unmarked) the value was 8.95%; for `O=c1c2ccc(Cl)cc2[nH]c(=S)n1CCCN1CCOCC1`, 4.95%; for `CCN(CC)c1ccc(/C=N/N=C(N)N)c(O)c1`, -1.15%.

On to `CCCCN(CCCC)CCNC(=O)c1ccc2nc(-c3ccccc3NC(C)=O)c(=O)[nH]c2c1`, for which the “hERG current change (%, negative = inhibition) at 1uM” value is on record as 13.6%. With `O=C(NCc1ccco1)C1CCCN(S(=O)(=O)c2ccc(-n3cnnn3)cc2)C1` (centres unmarked) the figure was -26.8%; with `CC1=NN(c2ccccc2)C(=O)/C1=C\c1ccc(Br)s1`, 4.5%; with `O=C(c1nc2nc(-c3ccccc3)cc(C(F)(F)F)n2n1)N1CCOCC1`, 27.2%.

For the molecule `Cc1ccc(C23CC4CC(CC(C(=O)N5CCOCC5)(C4)C2)C3)cc1`, the “hERG current change (%, negative = inhibition) at 1uM” value is recorded as 7.59%. `Cc1ccc(C2C3CSCC=C3C(C#N)=C(N)C2(C#N)C#N)cc1` (centres unmarked): the “hERG current change (%, negative = inhibition) at 1uM” value is on record as -14%. With `COc1cc2c(c(OC)c1OC)C(=O)CC2` the figure was 8.41%; with `O=C(c1ccccc1)c1nc2c(n1O)CCCCC2`, 7.96%; with `COc1ccccc1NC(=O)CSCc1cc(=O)n2c(C)csc2n1`, 15.6%. `CCCN1C(=O)c2ccc(C(=O)Nc3cc(C)on3)cc2C1=O`: the “hERG current change (%, negative = inhibition) at 1uM” value worked out at 8.19%.

Turning to `CCCCCOc1ccc(/C(C)=N/NC2=NCCN2)cc1`, the “hERG current change (%, negative = inhibition) at 1uM” value is 8.51%. `O=c1oc2cc(O)ccc2c2c1CCCC2`: the “hERG current change (%, negative = inhibition) at 1uM” value was 10.7%. With `Cc1cccc(C)c1NC(=O)CSc1nnc(NC(=O)CN2CCOCC2)s1` the figure was 11.1%; with `Oc1cccc(C2c3[nH]c4ccccc4c3CCN2Cc2ccoc2)c1` (centres unmarked), 5.62%. As for `O=C(NCc1cccnc1)c1ccc(COc2ccc3c(c2)CCC3)o1`, the “hERG current change (%, negative = inhibition) at 1uM” value came to 7.24%. For `Cc1cccc(NC(=O)c2cc(-c3cc(C)ccc3O)n[nH]2)c1` the value was 5.2%.

On to `CCc1ccc(N2CCN(CCNC(=O)Nc3ccc(OC)cc3)CC2)cc1`, for which the “hERG current change (%, negative = inhibition) at 1uM” value is recorded as 15.5%. For `O=c1[nH]c2ccc(S(=O)(=O)Nc3ccc(-c4nnc5n4CCCCC5)cc3)cc2o1` the value was 11.7%. For `FC(F)(F)C1=CC(c2ccc(Cl)cc2)=NCCN1` the value was 2.84%; for `COC(=O)c1c(C(=O)OC)c(-c2ccccc2)n2c1CS(=O)(=O)C2`, 14.5%; for `O=c1[nH]nc(Cc2ccc(Cl)cc2Cl)c2ccccc12`, 14.1%. For `Cc1ccc(C)n1CCN1CCN(C(=O)c2ccco2)CC1` the value was 11.5%; for `O=[N+]([O-])c1cc(S(=O)(=O)NC2=NCCCCC2)ccc1NCC1CCCCC1`, 12.4%.

Turning to `Cc1cc(OCCCCCNCCO)cc(C)c1Cl`, the “hERG current change (%, negative = inhibition) at 1uM” value is recorded as -8.25%. Consider `O=C1CCC(=O)N1CCCCCc1nc(-c2ccccc2)no1`, for which the “hERG current change (%, negative = inhibition) at 1uM” value was 2.96%. As for `COc1ccc(CNC(=O)C2CCCN(c3ncnc4c3nc3n4CCCCC3)C2)cc1` (centres unmarked), the “hERG current change (%, negative = inhibition) at 1uM” value is given as -2.33%. For `CC(C)CN(C(=O)COC(=O)CCc1c[nH]c2ccccc12)C1CCS(=O)(=O)C1` (centres unmarked) the value was 6%. With `O=C(NCn1cnccc1=O)c1ccccc1` the figure was 20.9%; with `CC(CC(=O)O)CC(=O)Nc1cc(C(F)(F)F)cc(C(F)(F)F)c1` (centres unmarked), 26.7%; with `CCO/C(C)=N/n1c2nc3ccccc3nc2c2c(=O)n(C3CCCC3)c(C)nc21`, 7%.
